Laboratory results reported in PubChem BioAssay AID485344 (National Center for Advancing Translational Sciences (NCATS), 2010).
Screen size: about 340,000 compounds; about 6,900 (2%) were called active. Rule as the data show it: active = inhibition above about 30%; inactive = below that, where a call was filed. This is a selection; strong and weak results do not stand in their true shares. The source gives no active or inactive call for entries shown without one.

Biological target: D(2) dopamine receptor (Homo sapiens) (UniProt P14416)
Sequence of UniProt P14416 (P14416 whole entry, looked up): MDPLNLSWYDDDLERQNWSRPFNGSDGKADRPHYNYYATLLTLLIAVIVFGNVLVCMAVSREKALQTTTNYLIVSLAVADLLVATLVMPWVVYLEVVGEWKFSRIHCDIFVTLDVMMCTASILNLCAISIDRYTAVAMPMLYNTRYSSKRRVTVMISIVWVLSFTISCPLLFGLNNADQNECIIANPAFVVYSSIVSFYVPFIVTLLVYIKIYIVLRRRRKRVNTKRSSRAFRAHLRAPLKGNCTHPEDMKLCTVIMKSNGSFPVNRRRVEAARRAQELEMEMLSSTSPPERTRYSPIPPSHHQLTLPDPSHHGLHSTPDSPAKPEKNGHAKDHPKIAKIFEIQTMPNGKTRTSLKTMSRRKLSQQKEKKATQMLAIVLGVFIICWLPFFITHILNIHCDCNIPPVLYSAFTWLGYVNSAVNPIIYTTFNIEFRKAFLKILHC
Assay: HTS Assay for Allosteric Antagonists of the Human D2 Dopamine Receptor: Primary Screen for Antagonists; also: 0% is about no effect
Conditions: HEK293 TREx D2 cells, calcium flux, dopamine EC80; at 10 µM; stronger effect = higher value
Method in brief: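 Calcium flux kinetic readout in an inducible HEK293 TREx D2 line plated overnight at 30 C. After 180 s compound exposure, an EC80 dopamine challenge follows with another 180 s kinetic read to detect antagonism.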

Row | Structure (SMILES) | inhibition
1 | O=C(Nc1ccc(Cl)cc1Cl)c1cc(S(=O)(=O)N2CCN(c3ccccc3F)CC2)ccc1F | -3.15%
2 | COc1ccc(NC(=O)c2c(N)c(C(=O)c3ccc(OC)cc3)n3ccccc23)cc1 | -6.7%
3 | COc1ccc(N2CCN(C(=O)CSc3nc4ccccc4nc3Cc3ccc(Cl)cc3)CC2)cc1 | 10.5%
4 | Cc1c(C(=O)NCCc2ccc(Cl)cc2)cccc1-n1cnc2cccnc21 | 0.114%
5 | COc1ccc(N2CCN(C(=O)c3cc(-c4ccc(C)c(F)c4)on3)CC2)cc1 | -9.81%
6 | CCOc1ccc(CC(=O)NCCS(=O)(=O)N2CCN(c3ccc(OC)cc3)CC2)cc1 | -17.8%
7 | CCn1c2ccccc2c2cc(CN3CCN(Cc4ccc(OC)c(OC)c4)CC3)ccc21 | -14.1%
8 | CCCn1c(/C=C/c2ccccc2)nc2ccccc21 | 1.92%
9 | Cc1coc2c1c(C)cc1oc(=O)c(CC(=O)NCCc3ccc(Cl)cc3)c(C)c12 | 4.43%
10 | CCn1c(CN2CCCCC2)nc2cc(NC(=O)COc3ccccc3C(C)(C)C)ccc21 | -6.38%
11 | O=C(NCCc1ccc(Cl)cc1)C(=O)NCC(c1ccco1)S(=O)(=O)c1ccccc1 (configuration not stated) | -16.2%
12 | Cc1ccc(NC(=O)C(=O)NCC(c2cccnc2)N2CCN(C)CC2)cc1 (configuration not stated) | 12.8%
13 | Cc1c(C(=O)NCc2ccccc2)oc2ccc(S(=O)(=O)N3CCC(C)CC3)cc12 | -6.15%
14 | COc1ccc(CCNC(=O)c2c(O)nc3c(C)cccn3c2=O)cc1OC | 2.93%
15 | COc1ccc(C)cc1NC(=O)c1ccc2nc(Cc3ccccc3)oc2c1 | -7.45%
16 | CCn1c2c(c(=O)n3ncc(C(=O)Nc4ccc(C(=O)OC)cc4)c13)CN(Cc1ccc(OC)cc1)CC2 | 7.78%
17 | CCOC(=O)c1ccc(CN(Cc2ccc(OC)cc2)S(=O)(=O)c2cccc(C(F)(F)F)c2)cc1 | -1.3%
18 | O=C(NC1CCN(Cc2ccccc2)CC1)c1cccc(OC(F)F)c1 | active: 81%
19 | CC1=C(C(=O)Nc2ccccc2C)C(c2cccs2)n2nc(SCc3cc(C)ccc3C)nc2N1 (configuration not stated) | 25.8%
20 | O=c1c(N2CCc3ccccc3C2)csc2ccc(F)cc12 | -19.7%
21 | CCOc1ccc(N(CC)C(=O)c2noc3c2COc2ccc(C)cc2-3)cc1 | 17%

Row | Structure (SMILES) | inhibition
22 | COc1ccccc1C(=O)Nc1c(C(=O)c2ccccc2)oc2ccccc12 | -8.54%
23 | Cc1ccc(CNC(=O)c2c(-c3ccc(Br)cc3)noc2C)o1 | 5.64%
24 | CCOc1ccccc1NC(=O)C1=C(C)Nc2ncnn2C1c1sccc1C (configuration not stated) | 14.5%
25 | O=C(CCCn1c(=O)c2cccn2c2cccnc21)Nc1ccccc1C(F)(F)F | 3.32%
26 | Clc1ccc(/C=C\c2nccc3c2[nH]c2ccccc23)cc1 | active: 66.4%
27 | CN1CCCN(Cc2ccc(Cl)cc2Cl)CC1 | active: 34.6%
28 | CCOC(=O)Cn1c(=O)n(CC2CCCO2)c2nc(-c3ccccc3Cl)nc(C(N)=O)c21 (configuration not stated) | -6.3%
29 | COc1cccc(NC(=O)CSC2=Nc3ccccc3C3=NC(CC(=O)NCc4cccs4)C(=O)N23)c1 (configuration not stated) | 4.94%
30 | COc1ccc(CNC(=O)CSCc2cnn(-c3ccccc3)c2-n2cccc2)cc1OC | 3.64%
31 | Cc1cccc(N2CCN(C(=O)c3cc4c(=O)[nH]c5ccc(C)cc5c4s3)CC2C)c1 (configuration not stated) | 10.5%
32 | CCCN(CCC)C(=O)c1c[nH]c2ccc(S(=O)(=O)N(C)c3ccc(OCC)cc3)cc2c1=O | 19.8%
33 | Cc1c(CCC(=O)NCc2ccc(F)cc2)c(=O)oc2cc(O)ccc12 | -0.825%
34 | COc1ccc(CCNC(=O)c2ccc3c(Cl)c4c(nc3c2)CCCC4)cc1OC | -1.27%
35 | Cc1ccc2oc(C(=O)Nc3nc(-c4ccc(F)cc4)ns3)c(C)c2c1 | 1.85%
36 | CCc1ccc(C(=O)c2cn(CC(=O)Nc3ccc4c(c3)OCCO4)c3ccc(CC)cc3c2=O)cc1 | 12.5%
37 | Cc1ccccc1OCC(=O)Nc1ccc(C(=O)OCc2cc(=O)n3c(C)csc3n2)cc1 | -9.44%
38 | C#CC(C)(CC)NC(=O)Cn1nnc(-c2ccc(OCc3ccccc3Cl)cc2)n1 (configuration not stated) | 2.54%
39 | Cc1ccc(NC(=O)Cn2c(SCc3cccc(F)c3)nc3ccncc32)c(C)c1 | -9.48%
40 | CC(C)(C)c1ccc(C(=O)Nc2nc3nc(-c4ccccc4)cc(=O)n3[nH]2)cc1 | -0.665%
41 | COc1ccc(Br)cc1CNC(=O)CN1C(=O)CCCc2ccccc21 | -0.965%
42 | COc1ccc(C(=O)NCC(c2cccnc2)N2CCN(c3ccccc3OC)CC2)cc1 (configuration not stated) | 9.22%

Row | Structure (SMILES) | inhibition
43 | COc1ccc(C(C(=O)Nc2ccc(C(C)C)cc2)N(C)C(=O)Cc2cccs2)cc1 (configuration not stated) | 3.32%
44 | COc1ccc(S(=O)(=O)NC(C)C)cc1-n1cnnn1 | -4.39%
45 | Cc1ccccc1Nc1nnc(-c2ccc(C)c(S(=O)(=O)N3CCN(C)CC3)c2)c2ccccc12 | 10.2%
46 | O=C(Cc1csc2ccccc12)NCc1ccc(F)cc1 | 2.43%
47 | O=C(Nc1ccc(OC(F)(F)F)cc1)C1CCCN(S(=O)(=O)c2ccc(Br)s2)C1 (configuration not stated) | -3.68%
48 | Cc1nc2c(c(SCC(=O)Nc3ccccc3C(F)(F)F)n1)CCC2 | -14.2%
49 | Cc1cc(OC(C)C(=O)N2CCN(CCc3ccccn3)CC2)ccc1Cl (configuration not stated) | -10%
50 | Cc1c(F)cccc1NS(=O)(=O)c1cccs1 | 8.5%
51 | CC(C)N(Cc1ccccc1)C(=O)c1cc2ccc3cccnc3c2[nH]1 | -10.5%
52 | CCOC(=O)C1CCN(C(=O)c2nn(-c3ccc(C)cc3)c(=O)c3c2c2ccccc2n3C)CC1 | 2.12%
53 | CCC(CC)C(=O)Nc1ccc(OCc2cc(=O)n3ccc(C)cc3n2)cc1 | -14.7%
54 | CCOc1ccccc1N1CC(c2nc3ccccc3n2CCCOc2ccccc2)CC1=O (configuration not stated) | -0.173%
55 | CC(C)(C)c1ccc(C(=O)CSc2n[nH]c(=O)[nH]c2=O)cc1 | active: 30.7%
56 | CCCCNC(=O)c1cnc2sc(N3CCCCC3)nn2c1=O | 3.62%
57 | COc1ccc(Nc2ncc(C(=O)N3CCN(c4ccc(OC)cc4)CC3)c3ccccc23)cc1 | 9.59%
58 | O=C(c1ccc2c(c1)CCN2S(=O)(=O)c1ccc(Cl)cc1)N1CCN(c2ccccc2F)CC1 | 7.49%
59 | CCOC(=O)c1sc2ncn(CC(=O)Nc3cccc(C)c3)c(=O)c2c1C | 2.07%
60 | CCOC(=O)c1[nH]c2ccccc2c1NC(=O)c1c(F)cccc1F | -3.13%
61 | O=C(NCc1ccccc1Cl)c1ccc2c(c1)N(Cc1ccccc1)C(=O)c1ccccc1S2 | -28.3%
62 | O=C(Nc1cccc(Cl)c1)C1CCN(c2nc3ccccc3nc2C(F)(F)F)CC1 | 6.68%
